Experimental data: PubChem BioAssay AID686979 (National Center for Advancing Translational Sciences (NCATS), 2013)
Several values for one entry are separate records, joined by “and”; a condition that tells them apart may be missing. Identical values can stand only once. Out of some 420,000 compounds screened, about 50,000 (12%) were called active. Inconclusive means that the source gave no clear call. Such entries were picked first, then a sample of the others. The call rests on the fitted dose curve; in most records, active means well fitted inhibition curve with a large enough effect; inconclusive means small, poorly fitted or top-dose-only effect; inactive means flat fitted curve, though single readings scatter. Potencies beside an inconclusive call are fits to weak or partial responses and may not hold up.
On the % scale 0 is the no-effect control and ±100 the full control effect; potency means the concentration at half of the fitted maximal effect; tags describe the fitted curve by direction and shape.

Assay: qHTS for Inhibitors of human tyrosyl-DNA phosphodiesterase 1 (TDP1): qHTS in cells in presence of CPT; further: nearly all actives have a fitted effect of over 55% in size
Settings: chicken DT40 Tdp1-/-;hTDP1 cells + 20 nM CPT, ATP luminescence, 48 h; activity change, negative = growth inhibition: at 46.2 µM (top of the series)
How it was run: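 Chicken DT40 Tdp1-/- cells stably complemented with human TDP1 were seeded at 400 cells/well in medium containing 20 nM camptothecin, exposed to pin-transferred compounds, and grown at 37 °C for at least 48 hr. Viability was read as ATP luminescence.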
In the case of CCc1nc2c(OCC(=O)C(C)(C)C)cccn2c1N(C)C(=O)C(C)C, the Potency is reported as inconclusive: 18.4 µM [inhibitor, single point].
In the case of Cn1c(SCc2nc(-c3ccc(Cl)cc3)no2)nnc1-c1cccs1, the Potency is reported as inconclusive: 20.6 µM [inhibitor, single point].
With Cc1ccccc1CC(=O)Nc1ccc2c(c1)c(=O)n(C)n2-c1ccccc1F the Potency was inconclusive: 29.1 µM [inhibitor, single point].
In the case of CC/C(O)=C1\C(=O)CC(C)(C)CC1=Nc1ccccc1C, the Potency is reported as inconclusive: 29.1 µM [inhibitor, single point].
For Cc1cc(NC(=O)CCC(=O)N(c2ccccc2)C(C)C(=O)NC2CCCC2)no1 (stereo not drawn), the “activity change, negative = growth inhibition” value was inactive: 3.45%.
With Cc1cccc(/C=N/NC(=O)c2cc(Br)ccc2OCc2ccccc2)n1 the Potency was inconclusive: 18.4 µM [inhibitor, single point].
With CCCN1CCC(=O)N(CCO)CC1 the “activity change, negative = growth inhibition” value was inactive: 15%.
With O=C1O[C@@H](c2ccccc2)C[C@@H](O)[C@H](O)CCc2ccccc21 the “activity change, negative = growth inhibition” value was inactive: -1.79%.
With O=C(Nc1ccc(F)c(Cl)c1)C1Cc2c(-c3cccc(F)c3)ccnc2O1 (stereo not drawn) the Potency was inconclusive: 20.6 µM [inhibitor, single point].
With Cc1ccc(C(=O)COC(=O)c2ccccc2NC(=O)c2ccccc2)cc1[N+](=O)[O-] the “activity change, negative = growth inhibition” value was inactive: -10.4%.
In the case of CC(C)(C)OC(=O)COc1ccc(/C=N/NC(=O)CN2CCCCC2)cc1, the “activity change, negative = growth inhibition” value is reported as inactive: 5.23%.
For Cc1ccc(-c2nnc(SCc3nc4ccccc4[nH]3)n2Cc2ccco2)cc1, the activity change, negative = growth inhibition was inconclusive: -31.2% [inhibitor].
For COc1cc(C(=O)N/N=C(\C)Cn2nc([N+](=O)[O-])cc2C)ccc1O, the “activity change, negative = growth inhibition” value was inactive: -22.4%.
In the case of Cc1ccccc1CN1CCCC(C(=O)Nc2ccc(-c3ccn[nH]3)cc2)C1 (stereo not drawn), the Potency is reported as active: 16.4 µM.
In the case of COc1cccc(-c2ccc(NC(=O)C3CCCN(Cc4cccc(C)n4)C3)cc2)c1 (stereo not drawn), the Potency is reported as inconclusive: 18.4 µM [inhibitor, single point].
With CN1CCSc2ccc(C(=O)Nc3cccc(F)c3)cc21 the Potency was inconclusive: 29.1 µM [inhibitor, single point].
In the case of COc1cccc(OC)c1NC(=O)c1ccc(-c2cc(Cl)ccc2Cl)o1, the Potency is reported as inconclusive: 29.1 µM [inhibitor, single point].
In the case of O=C(Nc1cc(N2CCCCC2)ncn1)c1ccc(F)cc1, the Potency is reported as inconclusive: 29.1 µM [inhibitor, single point].
In the case of O=C1CC(c2ccccc2)=C(c2ccccc2)C1c1ccccc1 (stereo not drawn), the Potency is reported as active: 29.1 µM.
With CN(Cc1ccco1)c1nc(-c2cccc(C#N)c2)nc2ccccc12 the Potency was inconclusive: 29.1 µM [inhibitor, single point].
In the case of COc1cc(OC)c(NC(=O)NCc2ccc3c(c2)CCN3C(=O)c2ccccc2)cc1Cl, the Potency is reported as inconclusive: 29.1 µM [inhibitor, single point].
With CCOC(=O)c1[nH]c2ccc(C)cc2c1NC(=O)CN1CCCCC1 the “activity change, negative = growth inhibition” value was inactive: -27.4%.
With S=c1[nH]nc(C2CCCCC2)n1Cc1ccccc1 the Potency was inconclusive: 29.1 µM [inhibitor, single point].
With COc1cc2c(cc1OC)C(COc1cccc(C(F)(F)F)c1)NCC2 (stereo not drawn) the Potency was active: 20.6 µM.
With Cc1nc(N2CCCCC2)c2c(C)c(C(=O)Nc3ccccc3C(F)(F)F)sc2n1 the Potency was active: 2.06 µM.
With S=c1nc[nH]c2nc[nH]c12 the Potency was inconclusive: 29.9 µM [inhibitor, single point] and inconclusive: 6.51 µM [inhibitor, full curve, poor fit] and inconclusive: 18.4 µM [inhibitor, single point].
For CCOc1cc(/C=N/Nc2nc(=O)[nH]nc2C)ccc1O, the “activity change, negative = growth inhibition” value was inactive: 23.3%.
For CC(=O)c1ccc(N2CCN(Cc3cc(=O)n4c(-c5ccccc5)csc4n3)CC2)cc1, the Potency was inconclusive: 25.9 µM [inhibitor, partial curve, poor fit].
For Cc1nc2nc(SCC(=O)NCCc3ccc(Cl)cc3)nn2c(C)c1Cc1ccccc1, the Potency was inconclusive: 23.1 µM [inhibitor, single point].
With COC(=O)c1sc2cccc(F)c2c1S(=O)(=O)N1CCN(c2ccc(F)cc2)CC1 the Potency was inconclusive: 29.1 µM [inhibitor, single point].
In the case of O=C(N/N=C/c1ccc([N+](=O)[O-])o1)c1ccc2c(c1)OCO2, the Potency is reported as active: 2.31 µM.
With CCOC(CNc1cc(C)nc2c(-c3ccccc3OC)c(C)nn12)OCC the Potency was inconclusive: 20.6 µM [inhibitor, single point].
In the case of COc1ccc2c(c1)CCc1c(C(=O)Nc3c(C)nn(Cc4ccc(Cl)c(Cl)c4)c3C)noc1-2, the Potency is reported as active: 11.6 µM.
For Cc1ccc(S(=O)(=O)c2nc(-c3cccc(C)c3)oc2N2CCN(c3ccccc3)CC2)cc1, the Potency was inconclusive: 0.82 µM [inhibitor, full curve, poor fit].
With O=C(c1ccco1)N1CCC2(CC1)CCN(C(c1ccccc1)c1ccccc1)CC2 the Potency was inconclusive: 20.6 µM [inhibitor, single point].
With COc1cc(F)ccc1S(=O)(=O)n1c(C)nc2ccccc21 the Potency was inconclusive: 29.1 µM [inhibitor, single point].
In the case of O=C(CCN1CCN(c2ccc(Cl)cc2)CC1)Nc1nccs1, the Potency is reported as inconclusive: 9.2 µM [inhibitor, partial curve].
In the case of Cc1cccc(C(=O)NCC(=O)NC(C)c2ccc(-n3ccnc3)cc2)c1 (stereo not drawn), the “activity change, negative = growth inhibition” value is reported as inactive: 0.548%.
With Cn1c(N)c(C(=O)COc2ccc(Cl)cc2Cl)c(=O)n(C)c1=O the Potency was inconclusive: 29.1 µM [inhibitor, single point].
For O=C(Nc1ccncc1)c1cc(-c2ccccc2)nc2ccccc12, the Potency was inconclusive: 16.4 µM [inhibitor, single point].
With CCN1CCc2c(sc(NC(=O)c3ccc(S(=O)(=O)N4CCOCC4)cc3)c2C(N)=O)C1 the Potency was inconclusive: 29.1 µM [inhibitor, single point].
With COCCn1c(=O)c(-c2cn(C)c3ccccc23)nc2cnc(OCc3ccccc3)nc21 the “activity change, negative = growth inhibition” value was inactive: -0.836%.
For CC(=O)c1cc(C(=O)Nc2cc(C)cc(C)c2)c2ccccn12, the Potency was inconclusive: 29.1 µM [inhibitor, single point].
For Nc1[nH]c(C(=O)c2ccccc2)c(-c2ccccc2C(F)(F)F)c1C(=O)NCCc1c[nH]c2ccccc12, the Potency was inconclusive: 29.1 µM [inhibitor, single point].
With CCc1ccccc1NC(=O)CSc1nc(-c2ccccc2OC)nc2c1Cc1c(CO)cnc(C)c1O2 the Potency was inconclusive: 23.1 µM [inhibitor, single point].
In the case of O=C(CN1c2cccc3cccc(c23)S1(=O)=O)N1CCCCC1, the “activity change, negative = growth inhibition” value is reported as inactive: -6.45%.
For Cc1nc2ccc(S(=O)(=O)NCC(=O)N3CCN(c4ccccc4)CC3)cc2s1, the Potency was inconclusive: 18.4 µM [inhibitor, single point].
For COc1ccc(C2=NN(C(=O)CN3CCCCC3)C(c3ccc(C)cc3)C2)cc1 (stereo not drawn), the Potency was inconclusive: 20.6 µM [inhibitor, single point].
In the case of COc1ccc(OCC(=O)Nc2ccc(S(=O)(=O)N3CCOCC3)cc2)cc1, the “activity change, negative = growth inhibition” value is reported as inactive: 0.116%.
In the case of CC(C)c1ccc(NC2CCCN(C(=O)C3=NN(C)C(=O)CC3)C2)cc1 (stereo not drawn), the “activity change, negative = growth inhibition” value is reported as inactive: -5.96%.
In the case of CCOC(=O)CC1c2cc(OCC)c(OCC)cc2CCN1C(=O)Nc1cccc(Cl)c1 (stereo not drawn), the Potency is reported as inconclusive: 29.1 µM [inhibitor, single point].
With COc1ccccc1NS(=O)(=O)c1ccc(C)c(C(=O)N2CCN(c3ccc(O)cc3)CC2)c1 the Potency was active: 14.6 µM.
With CCN(CC)CCNc1c2c(c(C#N)c3nc4ccccc4n13)CCCC2 the Potency was inconclusive: 25.9 µM [inhibitor, single point].
For Cc1cc([N+](=O)[O-])c(C(C)(C)C)cc1N, the Potency was inconclusive: 18.4 µM [inhibitor, single point].
In the case of Cc1cccc(-n2nc3c(c2NC(=O)C(C)C)CSC3)c1, the “activity change, negative = growth inhibition” value is reported as inactive: -25.3%.
In the case of O=C(CCSc1nc(-c2ccco2)cc(C(F)(F)F)n1)N1CCN(c2ccccn2)CC1, the Potency is reported as inconclusive: 25.9 µM [inhibitor, single point].
With CCC1=Nc2cc(C(=O)NCCCN3CCOCC3)ccc2Sc2ccc(Br)cc21 the Potency was inconclusive: 14.6 µM [inhibitor, partial curve].
In the case of CC(C(=O)Nc1ccc(Cl)cc1Cl)N1C(=O)NC2(CCCCCCC2)C1=O (stereo not drawn), the Potency is reported as inconclusive: 11.6 µM [inhibitor, partial curve].
For CCOC(=O)c1[nH]c(C)c(CCC(=O)NCc2ccccc2Cl)c1C, the Potency was inconclusive: 29.1 µM [inhibitor, single point].
In the case of CNC(=O)c1ccc(Nc2nnc(-c3ccc(C)c(S(=O)(=O)N(C)C)c3)c3ccccc23)cc1, the “activity change, negative = growth inhibition” value is reported as inactive: -15.9%.
With CNC(=S)N/N=C/c1ccc(OCC(=O)Nc2c(C)cc(C)cc2C)c(OC)c1 the Potency was active: 20.6 µM.
With COc1ccc(C2=NN(C(=O)CN3CCCCC3)C(c3ccc(OC)cc3)C2)cc1 (stereo not drawn) the Potency was active: 16.4 µM.
For O=C(NCc1ccccc1)c1ccc2c(c1)CCN2S(=O)(=O)c1ccccc1, the Potency was inconclusive: 20.6 µM [inhibitor, single point].
With CCC(=O)Nc1ccc(-c2nnc3c4ccccc4c(C)nn23)cc1 the Potency was inconclusive: 4.11 µM [inhibitor, single point].
In the case of CC(=O)OC[C@@H]1CN(Cc2ccccc2)C[C@H](n2cnc3c(NC4CC4)ncnc32)O1, the “activity change, negative = growth inhibition” value is reported as inactive: -3.76%.
In the case of CCC(C)Nc1ncnc2c1cnn2Cc1ccc(Cl)cc1 (stereo not drawn), the Potency is reported as inconclusive: 29.1 µM [inhibitor, single point].
In the case of Cc1oc(-c2ccccc2Cl)nc1CN1CCCN(C(=O)c2ccco2)CC1, the activity change, negative = growth inhibition is reported as inconclusive: -31.8% [inhibitor].
For CCOC(=O)c1ccc(NC(=O)C2CCN(S(=O)(=O)CC)CC2)cc1, the “activity change, negative = growth inhibition” value was inactive: -16.5%.
